We go through 4 molecules from patent US20190069553A1, “METHOD FOR CONTROLLING PPO RESISTANT WEEDS” (BASF SE, priority 2016, published 2019).

In test [1] the test system is Ambrosia elatior (common ragweed, AMBEL), PPO resistant biotype 4 that contains the R98L mutation (w.6). The conditions noted are these: scale 0 to 100.
Test [2] has as its system Amaranthus tamariscinus (common waterhemp, AMATA), PPO resistant biotype 1 (w.2). It is filed as in vivo. The settings on record: PPO resistant biotype 1 common waterhemp, scale 0 to 100.
Test [3] relates to Amaranthus tamariscinus (common waterhemp, AMATA), PPO resistant biotype 2 (w.3). In kind it is in vivo. The settings on record: PPO resistant biotype 2 common waterhemp, scale 0 to 100.
Test [4] deals with Ambrosia elatior (common ragweed, AMBEL), PPO resistant biotype 3 that contains the R98L mutation (w.5). The conditions noted are these: scale 0 to 100.
In test [5] the test system is Amaranthus tamariscinus (common waterhemp, AMATA), PPO resistant biotype 7 (w.11). Description: Greenhouse herbicidal activity test, third experiment, weed w.11. It is filed as in vivo. The conditions noted are these: use rate 2 g/ha; PPO resistant biotype 7 common waterhemp; scale 0 to 100.
The subject of test [6] is Amaranthus tamariscinus (common waterhemp, AMATA), PPO resistant biotype 8 (w.12). The experiment in a line: Greenhouse herbicidal activity test, third experiment, weed w.12. It is filed as in vivo. The settings on record: use rate 2 g/ha; PPO resistant biotype 8 common waterhemp; scale 0 to 100.

Read-outs that look alike come from different tables or passages of the source.

Take `C#CCN1C(=O)COc2cc(F)c(N3C(=O)C4=C(CCCC4)C3=O)cc21` [flumioxazin, reference compound]: the “Weed control (%) w.6” value was 0% in test [1] (use rate 1 g/ha, PPO resistant biotype 4 (R98L) common ragweed) and 20% in test [1] (use rate 2 g/ha, PPO resistant biotype 4 (R98L) common ragweed). The “Weed control (%) w.2” value in test [2] (use rate 1 g/ha) and in test [2] (use rate 2 g/ha) was 30% each time. In addition, the “Weed control (%) w.3” value in test [3] (use rate 1 g/ha) worked out at 0%; in test [3] (use rate 2 g/ha), 70%. In addition, the “Weed control (%) w.5” value came to 0% in test [4] (use rate 1 g/ha, PPO resistant biotype 3 (R98L) common ragweed) and 10% in test [4] (use rate 2 g/ha, PPO resistant biotype 3 (R98L) common ragweed).

Take `CCOC(=O)COc1ccccc1Oc1cc(-n2c(=O)cc(C(F)(F)F)n(C)c2=O)c(F)cc1Cl` [compound (I).4]: the “Weed control (%) w.11” value in test [5] is 89%. In addition, in test [6], the “Weed control (%) w.12” value is recorded as 100%.

On to `C#CCOc1cc(-n2nc3n(c2=O)CCCC3)c(Cl)cc1Cl` [azafenidin, reference compound], for which the “Weed control (%) w.11” value in test [5] is given as 67%. Besides, the “Weed control (%) w.12” value in test [6] is 70%.

With `CCOC(=O)COc1ncccc1Oc1cc(-n2c(=O)cc(C(F)(F)F)n(C)c2=O)c(F)cc1Cl` [compound (I).1, ethyl [3-[2-chloro-4-fluoro-5-(1-methyl-6-trifluoromethyl-2,4-dioxo-1,2,3,4-tetrahydropyrimidin-3-yl)phenoxy]-2-pyridyloxy]acetate], the “Weed control (%) w.6” value came out at 100% in test [1] (use rate 1 g/ha, […]) and 100% in test [1] (use rate 2 g/ha, […]). Also, the “Weed control (%) w.5” value in test [4] (use rate 1 g/ha, […]) came to 100%; in test [4] (use rate 2 g/ha, […]), 100%.
